PubChem BioAssay AID757 (NMMLSC, 2007)
In all, about 190,000 compounds went through this assay and about 520 (0.27%) were called active. The inconclusive results got no clear call from the source; some entries with a clear call stand among them for comparison.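 Rule for the calls: active = GTP binding activity at least 20 points away from the 100% control level, either lower or higher; inconclusive = compound flagged as likely green fluorescent, judged across all proteins; inactive = the rest.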

Biological target: Ras-related C3 botulinum toxin substrate 1 (Homo sapiens) (UniProt P63000)
Experiment: wildtype Rac1 GTP binding modulators, primary screen, biochemical, GST-Rac1 beads, flow cytometry, multiplex (AID 757)
Conditions: fluorescent GTP binding, at 10 µM, actives lie on both sides, 0 = cold GTP competed, 100 = untreated

Row | Structure (SMILES) | GTP binding activity (% of control)
1 | O=[N+]([O-])c1ccc(/C=N/N=C/c2ccc([N+](=O)[O-])o2)o1 | inactive: 95%
2 | COc1ccc(C2Nc3ccccc3C(=O)N2Cc2ccccc2)cc1COc1ccccn1 (stereo not drawn) | inconclusive: 109%
3 | O=C1CS/C(=C\[N+](=O)[O-])N1c1ccccc1 | inactive: 101%
4 | CC1CCCCC1NC(=O)Cn1nnc(-c2ccc(Cl)cc2)n1 (stereo not drawn) | inconclusive: 101%
5 | CCC(O)CNc1nc(SC)nc2sc3c(c12)CCN(C)C3 (stereo not drawn) | inactive: 103%
6 | Cc1ccc(C)c(N2CCN(C(=O)CN(C)S(=O)(=O)c3ccc4c(c3)CCC(=O)N4)CC2)c1 | active: 79%
7 | Cc1nc(/C=C\C(=O)O)c2cc(C)oc2n1 | inactive: 101%
8 | O=C(NNS(=O)(=O)c1ccc2ccccc2c1)c1cc(-c2ccccn2)nc2ccccc12 | inconclusive: 99%
9 | O=C(O)CCCN1C(=O)/C(=C/c2ccc(-c3nc4ccccc4s3)o2)SC1=S | inconclusive: 80%
10 | CCc1ccc(N=C2N=C(N)c3ccccc32)cc1 | inconclusive: 105%
11 | CN(C(=O)COC(=O)c1c[nH]c(=O)[nH]c1=O)C1CCCCC1 | inconclusive: 105%
12 | COc1c(C)cc(Br)cc1C(=O)O | active: 120% [activator]
13 | CCc1ccc(C(C(=O)NC2CCCC2)N(C(=O)/C=C/C(=O)Nc2cc(C)on2)c2ccccc2C)cc1 (stereo not drawn) | inactive: 97%
14 | O=C(Cn1cc2c(n1)CCCCC2)Nc1c(F)c(F)cc(F)c1F | inconclusive: 105%
15 | COCCCNC(=O)Cn1cc(C(=O)C2CC2)c2ccccc21 | inconclusive: 89%
16 | CNC(=S)N(CCc1cccc(C)c1)Cc1cc2cc(OC)c(OC)cc2[nH]c1=O | inconclusive: 98%
17 | CCC(C)NC(=O)Nc1ccc(C)cc1C (stereo not drawn) | inactive: 99%
18 | O=[N+]([O-])c1ccc2nc(CCCc3nc4ccc([N+](=O)[O-])cc4[nH]3)[nH]c2c1 | inconclusive: 102%
19 | Cc1onc(-c2ccccc2Cl)c1C(=O)NCc1cccs1 | inconclusive: 104%
20 | O=c1ccc(C(F)(F)F)cn1Cc1cc(=O)n2cc(Br)ccc2n1 | inconclusive: 109%

Row | Structure (SMILES) | GTP binding activity (% of control)
21 | COc1ccc(Cl)cc1-c1nc(SCC(=O)N(C)CCC#N)n[nH]1 | inconclusive: 89%
22 | COC(=O)Nc1ccc(S(=O)(=O)N2CCCC(C(=O)NC3CCS(=O)(=O)C3)C2)cc1 (stereo not drawn) | inactive: 105%
23 | O=C(N/N=C(\c1ccccc1)c1ccccn1)c1cccc([N+](=O)[O-])c1 | inconclusive: 79%
24 | COc1cc(/C=C2/C(C)=C(C#N)c3nc(N)c(C#N)c(C)c32)ccc1OCC(=O)O | inactive: 87%
25 | O=C(CSc1ncccn1)NCc1cccc(Cl)c1 | inconclusive: 95%
26 | COC(=O)c1c(N2C(=O)[C@H]3[C@@H](C2=O)[C@]2(C(=O)Nc4c2ccc(C)c4C)N2CCC[C@@H]32)sc(C)c1C | active: 124% [activator]
27 | O=C(Nc1ccccc1)c1ccc(Cn2cc(C(F)(F)F)ccc2=O)cc1 | inconclusive: 103%
28 | N#Cc1c(-c2ccco2)cc(-c2ccccn2)nc1N | inconclusive: 86%
29 | CC1(c2ccccn2)Nc2ccccc2-c2nc3ccccc3n21 (stereo not drawn) | inconclusive: 106%
30 | Cc1c(NC(=O)CCN2C(=O)c3ccccc3C2=O)c(=O)n(-c2ccccc2)n1C | active: 78%
31 | O=C(CSc1ccccn1)N1CCc2ccccc21 | inactive: 97%
32 | O=C(CSc1nc(-c2ccccc2)cs1)N1CCN(C(=O)c2ccco2)CC1 | inconclusive: 94%
33 | N#CCC(=O)Nc1ncc(Cc2ccccc2Cl)s1 | inconclusive: 98%
34 | Cc1cc(C)c(C(=O)C2OC(=O)C(C)(C)C(=O)C2(C)C)c(C)c1 (stereo not drawn) | inactive: 112%
35 | FC(F)(F)c1cccc(NC(=S)NNC(=S)NCc2ccccc2)c1 | inactive: 80%
36 | COc1ccc(/C=C2/N=C(SCC(=O)Nc3cc(C)on3)N(c3ccccc3)C2=O)cc1 | active: 77%
37 | Cc1ccc(NC(=O)COc2ccc(-c3nnco3)cc2)cc1S(=O)(=O)N1CCOCC1 | inactive: 95%
38 | O=C(Cc1ccccc1)Nc1cccc(-c2nnc(-c3ccco3)o2)c1 | inconclusive: 104%
39 | Cc1ccc(Nc2nc(COC(=O)COc3ccc(C=O)cc3)cs2)cc1 | inconclusive: 99%
40 | OC(COc1ccc2c(c1)OCO2)CN1CCN(c2ccc(F)cc2)CC1 (stereo not drawn) | inconclusive: 94%

Row | Structure (SMILES) | GTP binding activity (% of control)
41 | Cn1c(=O)c2c(nc(NCC3CCCO3)n2C)n(C)c1=O (stereo not drawn) | inconclusive: 108%
42 | Cn1cnnc1-c1cccc(NC(=O)c2cc(F)c(F)cc2Cl)c1 | inactive: 102%
43 | O=C(O)CSc1ncnc2sc3c(c12)CCCC3 | inconclusive: 92%
44 | CC(C)Sc1nc(-c2ccccc2)cc(=O)[nH]1 | active: 128% [activator]
45 | CNC(=S)NNC(=O)c1cccn(Cc2ccc(Cl)cc2Cl)c1=O | inconclusive: 104%
46 | O=[N+]([O-])c1ccc(O)c(/C=N/NC2=NS(=O)(=O)c3ccccc32)c1 | inconclusive: 88%
47 | O=c1c2ccccc2c(/C=N/n2cnnc2)c(O)n1-c1ccccc1F | inconclusive: 87%
48 | CCC1C(=O)CC(c2ccccc2)NC1c1ccccc1 (stereo not drawn) | inconclusive: 100%
49 | COc1ccc(-c2cc(N3C(=O)Nc4ccccc4N3O)n[nH]2)c(OC)c1 | inconclusive: 85%
50 | O=C(CCc1c[nH]c2ccccc12)NCc1ccco1 | inconclusive: 99%
51 | Cc1cc(N2CCOCC2)nc2ccc(NC(=O)CCC(=O)N3CCC(C)CC3)cc12 | inconclusive: 104%
52 | Cc1ccc(NC(=O)C2CCCN(C(=O)c3ccc(Cl)cc3)C2)cc1C (stereo not drawn) | inconclusive: 96%
53 | O=C(Cn1cc(/C=N/NC(=O)c2cccc(C(F)(F)F)c2)c2ccccc21)Nc1ccc(F)cc1 | inconclusive: 98%
54 | Cc1c(C=NCCOCc2ccccc2)cnn1C | inconclusive: 103%
55 | O=C(CN1CCCCC1)Nc1cccc([N+](=O)[O-])c1 | inconclusive: 106%
56 | Cc1cc(O)c(C(C)C)cc1NC(=O)c1ccccc1Cl | inconclusive: 103%
57 | Cc1nc(C(=O)NC(C)C)nn1-c1cc(Cl)cc(Cl)c1 | inactive: 97%
58 | O=C1CN(C(=O)COC(=O)c2ccccc2NCc2ccco2)c2ccccc2N1 | inconclusive: 91%
